# Laboratory results published in PubChem BioAssay AID686978 (National Center for Advancing Translational Sciences (NCATS), 2013).
# In all, about 420,000 compounds went through this assay and about 64,000 (15%) were called active. Inconclusive results, whose numbers are uncertain, are shown with a selection of clear calls. The call rests on the fitted dose curve; in most records, active means well fitted inhibition curve with a large enough effect; inconclusive means small, poorly fitted or top-dose-only effect; inactive means flat fitted curve, though single readings scatter. No potency is given beside an inconclusive call; the fits are too rough.
# Experiment: qHTS for Inhibitors of human tyrosyl-DNA phosphodiesterase 1 (TDP1): qHTS in cells in absence of CPT; further: nearly all actives have a fitted effect of over 55% in size
# Conditions: DT40 Tdp1-/- hTDP1 cells, no CPT, ATP luminescence, 48 h; activity change, negative = growth inhibition: at 46.2 µM (top of the series) unless noted
# Outline: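 Cells were dispensed at 400 per well, compounds added by pin tool, plates incubated ≥48 hr at 37 °C, then CellTiter-Glo added for 30 min at room temperature before luminescence reading. Line: DT40 Tdp1-/- complemented with hTDP1; camptothecin omitted.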
# On the % scale 0 is the no-effect control and ±100 the full control effect; potency means the concentration at half of the fitted maximal effect; tags describe the fitted curve by direction and shape.
Structure (SMILES),Potency,"activity change, negative = growth inhibition"
CN1CCC(N(C)S(=O)(=O)c2ccc(NC(=O)COc3cccc(C(F)(F)F)c3)cc2)CC1,"inconclusive [inhibitor, single point]",–
CCOC(=O)CN=C/C(C(C)=O)=C(/C)O,inactive,–
Cc1ccc(C(=O)Nc2cccc(C(O)c3ccccc3)c2)cc1 (stereo not drawn),"inconclusive [inhibitor, partial curve]",–
C[C@H]1CN([C@@H](C)CO)C(=O)CCCn2nncc2CO[C@H]1CN(C)S(=O)(=O)c1cccs1,inactive,–
O=S(=O)(Nc1ccc(-n2cccc2)cc1)c1ccccc1,"inconclusive [inhibitor, single point]",–
COC(=O)C1=C(O)/C(=C\c2cc(C)n(-c3ccccc3C)c2C)N=C1C,"inconclusive [inhibitor, partial curve]",–
O=C(NCc1ccccc1)c1ccc(CSc2nc3cccnc3n2Cc2ccccc2)cc1,active: 18.4 µM,–
CCCCOC(=O)Cn1c(=O)n(CC(=O)OCCCC)c2cc(C)ccc21,"inconclusive [inhibitor, partial curve, poor fit]",–
c1ccc(CCNc2ncnc3sccc23)nc1,active: 7.31 µM,–
CCS(=O)(=O)N1CCCC(C(=O)NCCN2CCC(Cc3ccccc3)CC2)C1 (stereo not drawn),"inconclusive [inhibitor, single point]",–
CSc1ncc2c(=O)[nH]c(-c3ccccc3)nc2n1,inactive,–
S=C(NCc1ccccn1)Nc1ccc(Cl)c(Cl)c1,"inconclusive [inhibitor, single point]",–
CNC(=O)CS(=O)CC(=O)Nc1cc(OCCOC)c(Cl)cc1Cl (stereo not drawn),inactive,–
Cc1cc(C)c(CN2CCN(CCCn3cnc(C(=O)Nc4ccc(C)c(C)c4)n3)CC2)c(C)c1,active: 14.6 µM,–
Cc1cc(C)c2nc(N3CCCC(C(=O)NCCN4CCOCC4)C3)sc2c1 (stereo not drawn),"inconclusive [inhibitor, single point]",–
O=C(CNC(=O)c1ccc(=O)[nH]c1)Nc1ccc(F)c(F)c1,–,inconclusive: -32.3% [inhibitor]
Cc1[nH]c2ccc(F)cc2c1CCN(Cc1cccnc1)C(=S)Nc1ccc(F)cc1,inactive,–
N#CC1(NC(=O)CSc2nnc(-c3ccccc3F)o2)CCCCC1,inactive,–
CCOc1ccc(NC(=O)Nc2cccc(C(=O)O)c2)cc1,"inconclusive [inhibitor, partial curve]",–
CC12CCC(=O)N1C(C(=O)NNC(=O)COc1ccccc1Cl)CS2 (stereo not drawn),"inconclusive [inhibitor, single point]",–
O=C(c1ccccc1)C(Nc1ccccn1)c1ccccc1 (stereo not drawn),inactive,–
CC(NCCC(Cc1ccccc1)c1ccco1)c1ccccc1 (stereo not drawn),"inconclusive [inhibitor, partial curve]",–
Cc1cc(C(=O)N/N=C/c2ccc(N(C)C)cc2)c2ccccc2n1,active: 4.11 µM,–
CC(C)c1ccc(CNc2nc(NCC3CC3)nc3ccsc23)cc1,active: 10.3 µM,–
Cn1c(N)c(C(=O)COC(=O)/C=C/c2ccccc2F)c(=O)n(C)c1=O,inactive,–

Structure (SMILES),Potency,"activity change, negative = growth inhibition"
O=C(CSc1nnc2scc(-c3ccccc3)n12)N1CCN(Cc2ccccc2)CC1,"inconclusive [inhibitor, single point]",–
CCCCn1nnnc1C(c1ccccc1)N1CCCN(Cc2ccc(F)cc2)CC1 (stereo not drawn),"inconclusive [inhibitor, single point]",–
O=C(Nc1nnc(-c2ccc3c(c2)OCCO3)o1)C1CCCCC1,"inconclusive [inhibitor, single point]",–
O=C(NCC(c1ccco1)N1CCc2ccccc2C1)C(=O)Nc1cc(F)ccc1F (stereo not drawn),"inconclusive [inhibitor, single point]",–
CCOc1ccc(-c2nnn(CC(=O)N3CCN(c4ccc(F)cc4)CC3)n2)cc1OCC,inactive,–
O=C(Cc1ccccc1F)NC1CCCc2ccccc21 (stereo not drawn),"inconclusive [inhibitor, single point]",–
Cc1ccc(NC(=O)CSc2ncnc3ccccc23)cc1S(=O)(=O)N1CCOCC1,active: 14.6 µM,–
COc1ccccc1NS(=O)(=O)c1cc([N+](=O)[O-])ccc1N/N=C/c1sc(N2CCOCC2)nc1-c1ccccc1,"inconclusive [inhibitor, partial curve]",–
CCOc1cccc(C(=O)NC(=S)Nc2ccccc2)c1,"inconclusive [inhibitor, single point]",–
C(=C\c1ccccc1)/CN1CCN(C(c2ccccc2)c2nnnn2Cc2ccccc2)CC1 (stereo not drawn),"inconclusive [inhibitor, single point]",–
Cc1cc2cc3c(cc2nc1SCC(=O)Nc1c(C)cccc1C)CCC3,"inconclusive [inhibitor, single point]",–
O=C(Nc1nc(-c2cc3ccccc3oc2=O)cs1)c1ccco1,"inconclusive [inhibitor, single point]",–
CN(C(=O)c1ccc(NC(=O)Cc2cccc(NC(=O)C3CCCN(C(=O)C4CCCC4)C3)c2)cc1)C1CCCC1 (stereo not drawn),"inconclusive [inhibitor, single point]",–
COc1ccc(NC(=O)CSCc2ccc(C)cc2)cc1,"inconclusive [inhibitor, partial curve, poor fit]",–
O=C(CSc1nccn1-c1ccccc1)c1ccc(Br)cc1,–,inconclusive: -32.5% [inhibitor]
CCCCN(C(=O)C1=NN(c2ccccc2)C(=O)CC1)c1c(N)n(CCC)c(=O)[nH]c1=O,inactive,–
COc1ncc2ncc(=O)n(C[C@H]3CCCO3)c2n1,inactive,–
NC(=O)C1CCN(c2oc(-c3ccc(F)cc3)nc2S(=O)(=O)c2ccccc2)CC1,"inconclusive [inhibitor, single point]",–
CC(C)CNC(=O)c1cc([N+](=O)[O-])ccc1N1CCCCC1,active: 23.1 µM,–
CCOC(=O)[C@]12CCCC=C1N(Cc1cccc3ccccc13)C(=O)[C@H](CC(=O)NCc1ccc(C)o1)C2,"inconclusive [inhibitor, single point]",–
COc1ccc(-c2nc3cncnc3n(-c3ccccc3)c2=O)cc1,inactive,–
Oc1c(/C=C/C=C/C=Nc2ccccc2)sc(=S)n1Cc1ccccc1,active: 20.6 µM,–
CCNC(=O)CNC(=O)c1nn(Cc2ccccc2)c(=O)c2ccccc12,inactive,–
COC(=O)c1ccccc1Sc1c(/C=N/OC(=O)c2ccccc2)c(C(F)(F)F)nn1C,"inconclusive [inhibitor, single point]",–
CNc1cncc(-c2cccc(C(=O)NCCN(C)C)c2)n1,inactive,–

Structure (SMILES),Potency,"activity change, negative = growth inhibition"
CCCCNC(=O)C[C@@H]1C[C@@]2(C(=O)OCC)CCCC=C2N(CCC2=CCCCC2)C1=O,active: 8.2 µM,–
CC1CN(C(=O)/C=C/c2ccc(SC(F)F)cc2)CC(C)O1 (stereo not drawn),active: 13 µM,–
O=C1c2cccc3c(Cl)ccc(c23)C(=O)N1O,active: 5.8 µM,–
CCCOc1ccc(N2C(=O)C3C4C=CC(CC4)C3C2=O)cc1 (stereo not drawn),"inconclusive [inhibitor, single point]",–
O=C1CCCN1CC(=O)N1CCCC(N2CCN(c3cccc(Cl)c3)CC2)C1 (stereo not drawn),inactive,–
Cc1cc2c(cc3c(SCc4cccc(Cl)c4)nnc(C)n32)o1,"inconclusive [inhibitor, single point]",–
CC(C)NC(=O)N(Cc1ccc(Cl)cc1)Cc1cccs1,"inconclusive [inhibitor, single point]",–
CCc1ccc(NC(=O)CSC2=Nc3ccccc3C3=NC(CC(=O)NCc4cccs4)C(=O)N23)cc1 (stereo not drawn),active: 4.61 µM,–
COc1ccccc1C1CN(CC(=O)NCC2OCCc3ccccc32)Cc2ccccc2O1 (stereo not drawn),inactive,–
Cc1ccc(CN2CCN(Cc3nc(C(C)C)cs3)CC2CCO)cc1 (stereo not drawn),active: 11.6 µM,–
CC(=O)Nc1cccc(OCc2c(F)cccc2Cl)c1,"inconclusive [inhibitor, single point]",–
COc1ccc2[nH]c(=O)c(C(c3nnnn3C3CCCC3)N3CCN(Cc4ccc5c(c4)OCO5)CC3)cc2c1 (stereo not drawn),"inconclusive [inhibitor, single point]",–
CC(=O)N[C@@H](C)C(=O)NCC1Cc2cc(C)cc(-c3cnccn3)c2O1 (stereo partly drawn),inactive,–
COc1cccc(N2CCN(C(=O)c3ccc4c(Cl)c5c(nc4c3)CCCC5)CC2)c1,active: 20.6 µM,–
CC#CCN1c2ccccc2[C@]23C[C@@H](C(=O)OC)N(C(=O)c4ccco4)C2=NC(C(=O)OC)=C(C(=O)OC)[C@H]13,"inconclusive [inhibitor, single point]",–
CN1CCN(C(=O)C2=C[C@@H](C(C)(C)C)C[C@@H](OCc3ccc(CO)cc3)O2)CC1,inactive,–
O=c1[nH]c(C2CCN(S(=O)(=O)Cc3ccccc3)CC2)nc2c1nnn2Cc1cccc(Cl)c1,active: 18.4 µM,–
COCCn1cc(-c2csc(N)n2)c2ccccc21,–,inconclusive: -31% [inhibitor]
COc1ccc(C2(CNC(=O)c3cccc([N+](=O)[O-])c3)CCOCC2)cc1,"inconclusive [inhibitor, single point]",–
CCCSc1nnc(NC(=O)Cc2coc3cc(C)ccc23)s1,inactive,–
CSc1cccc(N2CC(C(=O)N3CCN(S(=O)(=O)c4ccccc4Cl)CC3)CC2=O)c1 (stereo not drawn),active: 23.1 µM,–
O=P(OC1CCCCC1)(OC1CCCCC1)C(O)c1ccccc1 (stereo not drawn),"inconclusive [inhibitor, single point]",–
O=c1c2cccnc2n(Cc2ccc(Cl)cc2)c(=O)n1Cc1ccc(F)cc1,active: 8.2 µM,–
